{"source": "the supplement of paper PMC12632987", "binders": {"B1": {"name": "LC3A_132_326 (protein)", "chain": "EEEKLKELEEKINKKLEEMKANIDNKEKVEKLAKEIEKLLEEAEKEISPEEAAELFEKAADKLDEAADAADAAGKEDVALTLDGLAVLAAARSIRAEEKV"}, "B2": {"name": "LC3A_3_1807 (protein)", "chain": "MEEKLEELLKKLREAGKSEETIEAARRALELLIERGYYEAAEVLIEGLERLLDAPDELVLDLLEEVLEYLETNDASEEEVKEFIEEQIRLAENEAEIIEL"}, "B3": {"name": "LC3A_127_195 (protein)", "chain": "ELRELLERMLEVARRLLEELAKPDWDLERIRELAEELRRLAEEALKLDPRVQPILEDAELLLEEIERMEGLSPAEQEEAREHMSMIASGIEIELLGLLLE"}, "B4": {"name": "LC3A_free_46_2381 (protein)", "chain": "YRAEIDIDFGAMSKETAEKMAKEIKEAAEKIAKETGVEIEVEVEIITDEDGETYLRVKITIKGEDKEKVKEAVDKLVKEIDEIAEKANVSYIISIEFIDE"}, "B5": {"name": "LC3A_147_395 (protein)", "chain": "VVLEVDIDFITKNAEDEIEEEIKKLVEELKKKGYKVELKIEREKLDEDTTYIHVNITVKAETLEKAQEARDTIIDRIDEIIEKYKDKILGSLISYEIIEE"}, "B6": {"name": "LC3A_3_1482 (protein)", "chain": "MEEKLEKAVKALREAGKSEETIEALRRAYNALIEKGYENAAETLIDQMLKYIDLPDEDLLAAAELALELIETSDLDEASLAAKIKQIFDDVAGIEALDEE"}, "B7": {"name": "LC3A_147_393 (protein)", "chain": "YKLVIEIDLIVKNAEEEIIKEIEELVEELKKKGYEVELKIEKEKIDENTTYIRITITIKAETKEKAQEAQNYVLDKLDKIEEKYKDKILGSLISSEIIEE"}, "B8": {"name": "LC3A_17_533 (protein)", "chain": "SEELRKELERLLKELEEVAKRFIELAPEKAEEVNAAVEKVKKALEAGDLRAAAEELEKAARTIADLIDETEFEDEVEKEVLLMEANGVELEAIGLLLKLE"}, "B9": {"name": "LC3A_free_46_2308 (protein)", "chain": "VRAEILIDLLHEDEEVLKKAVEEIVKKIKEIAKKYGLKVKIEVSFSKDEDGSYFAEIKVILEGEDLEKLKEAVDEIIDGIDEIAEKYGVSYIISVEIIEE"}, "B10": {"name": "LC3A_78_2080 (protein)", "chain": "MKVAIIAHEPSAKEEAEKEAEKLTDADEIIITDISKLEEEVKKYKDADEIEVYIHADTLDKVDEAVEKVKEILKDYKISEIIEYDEETGHYTGYIIAKKK"}, "B11": {"name": "LC3A_132_238 (protein)", "chain": "SEELLEEIRKKIEELLKKIEENIDNLEKVKELVAELRELLERAEKELSPEDTLELAEETAERLDKLREKAEEAGKEEVAQQLENASMYADGIAIEAELKL"}, "B12": {"name": "LC3A_free_8_2475 (protein)", "chain": "AVQALVDQITAELDKLEEEATKLAKELGVDELDILELELEIGSAIAELISASDESIEEVRKVAEEEMKEIKEIAKELGEEIAKLVEETEKKILALIDAAE"}, "B13": {"name": "LC3A_3_1809 (protein)", "chain": "MEERLEEVIKLLKEAGHSQETIDAFKKAYEALKKKGYEKTLETLLELAEKNIDLPSELMLEMFNDVLELVETSDLSEEEITKKVKEIAKTYENESEIIEL"}, "B14": {"name": "LC3A_147_433 (protein)", "chain": "WKVEVDIDILTKDAEEEILKYFKELEEELKKKGYKVELNIEVEKLEDGTTYINIKIIIEAKTKEEAEEAANYVIDKIDELVEKLKDKILGSIISVEIIKK"}, "B15": {"name": "LC3A_23_628 (protein)", "chain": "MYKVTVTVDVIGSPEEIEKKTKELKEKIEELVEKYKDKIKEYEIKVEKEKLPDGQTFATITITIITDGDLETAQEIANEVTSIASEVFPDGVISVEIEKL"}, "B16": {"name": "LC3A_28_881 (protein)", "chain": "SAALASAEAALAEVKAAVAAGDTSPLVLTVKAPSTEEDAERFLALLEELAAEASKLPGVTIIIDIDESVSQELRDRIIDKAEELEEKYPNVTIIIALSEE"}, "B17": {"name": "LC3A_28_873 (protein)", "chain": "SRVDERVEAARKEAEEQAKEGEDIVVEVEVDSSMSLEEAVELMKRVLEMAREFVEKTGLKVTIVVDFDGSQETLDALLELAEEAEEENPKITVIFAISEE"}, "B18": {"name": "LC3A_free_8_2484 (protein)", "chain": "ASEKVANELSEALSEMEEELVKKAKELGKSRLDILELELEIGAAIAEVISLRDESVEKIAEATKESLEEILELAKELGEEIYKLAKEKAEKIRELAEKAL"}, "B19": {"name": "LC3A_147_471 (protein)", "chain": "VKVIVDIDILTKNAEEEVIEKIKEIVEELKKKGYKVELEIETEKLPDGTTYIKVKITIYAETKEEGEKAANEVIDKLEELEEELKDKILGSIISVEIIEE"}, "B20": {"name": "LC3A_3_1841 (protein)", "chain": "LEELREEAIAALKAAGHSQETIEAFLAALEALLARGYEEAARTFIELMLENIDMPDELLLALARDVLAYVETTDDSEEEVTARIRELARLYRNEYEIEEL"}, "B21": {"name": "LC3A_78_2090 (protein)", "chain": "MKTIVVYTSEKVKPEAEKLAKKITNADEVLLVEAEDLEKELKKYENEEEVDVIIVAETLEEVEELIEKVKEIFKDHKVSSIIEIDEETGIYIGYILVEKK"}, "B22": {"name": "LC3A_127_211 (protein)", "chain": "EKEKLLKEALELARKALEAAQKIPEKGEEARKEAEELLKKLIEVLKKIPSLKESLEDAEQALEIAKKMPELNEAEREEAREHIEMILSGIEIDVELELLK"}, "B23": {"name": "LC3A_45_1937 (protein)", "chain": "MYLATIDLIVPRELAEEALALAEEIARELEEENDGKVEVDLETLRESYEATRDEEDVLLVVKIYAETEELALDVADRLVDRLRAALGPRVAAIISVEEVP"}, "B24": {"name": "LC3A_3_1895 (protein)", "chain": "LEEELKETLEELKKAGASEEVLKLFKEVYEELLKRGYEEAARTLIEEMKKLKDASDEILKWFLEEVLEVIKTEDLNEEELIERIREIARTALNESEIEEL"}, "B25": {"name": "LC3A_3_1801 (protein)", "chain": "MEEKIEELLEELREAGKSEETIEAVREALELLKERGFEEALEVFIEELRKLIDAPDELILELAEEVLELLKNEDLSEEEVIERIKELARLALNESEIEEL"}, "B26": {"name": "LC3A_28_761 (protein)", "chain": "MTPEEIVEKAIKEAKEFKEKGESAVITITVPDGATEEDVEIYIEGLEKIAEILKDMKNAAIIVDVDGGVKQENLDKIVDKAEEIEKKYPNVTVIIALDEE"}, "B27": {"name": "LC3A_3_1891 (protein)", "chain": "LEERIERTEELLREKGASEETIELFRKVMELLKARGYEEALKTLIEEVEELADLPDEILLDFLEEVLEVLETEDLSEEELIKKIKELARLARNEGEIIEL"}, "B28": {"name": "LC3A_17_580 (protein)", "chain": "SAEVEALYEEARKVIEEAAKFAAKHDAAAAKQIKALLAELDAAKATGDDRVILETIAALMDEVANILDSLEDKDPEAATLLSMEAEGVAIEAESLLLKLE"}, "B29": {"name": "LC3A_28_836 (protein)", "chain": "SFAEEEIKKAKKALEKAKETKEDVVVEVVIKSTMTPEEAQYIMDELEKEVSKLPKDVKVSIVFLAEEPVDPEVLQTIADGGDEIEEKYPNVTVIIALPEE"}}, "note": "The full ranking holds about 2,300 sequences; the median of “median log2 fold change of GCK-ALFA target abundance (FLAG IP / Myc IP barcode read proportion)” is about 0.095, and the lowest 2% start at about -0.47. This is one part of the list."}
{"target": "MAP1LC3A, Q9H492", "assay": "median log2 fold change of GCK-ALFA target abundance (FLAG IP / Myc IP barcode read proportion) (log2 ratio); each designed protein is fused to an ALFA-tag nanobody in HEK293 cells to bring the named protein to FLAG-tagged glucokinase (GCK); Myc marks an untargeted standard; higher = target protein stabilised (more abundant)", "details": "target protein: 3xFLAG-MCP-GCK-ALFA reporter; HEK293 landing pad (RPLP)", "outline": "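Sequencing of reverse-transcribed, amplified circular RNA barcodes from anti-FLAG and anti-Myc immunoprecipitates provided the readout for an ALFA-nanobody-fused binder library recombined into HEK293 landing-pad cells. Those cells were induced with 2 μg mL^−1 doxycycline, transfected with a plasmid expressing a FLAG-tagged target and a Myc-tagged standard, and lysed after 48 h. Target abundance is the per-binder median log2 ratio of FLAG to Myc barcode read proportions. Only barcodes at a proportion of ≥10^−7 in both replicates and binders with ≥3 barcodes per replicate were kept, with a 10^−6 pseudocount added before the two replicates were pooled.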"}
{"binder": "B1", "median log2 fold change": -0.0983}
{"binder": "B2", "median log2 fold change": 0.000802}
{"binder": "B3", "median log2 fold change": -0.0106}
{"binder": "B4", "median log2 fold change": 0.0299}
{"binder": "B5", "median log2 fold change": -0.383}
{"binder": "B6", "median log2 fold change": 0.244}
{"binder": "B7", "median log2 fold change": 0.233}
{"binder": "B8", "median log2 fold change": 0.24}
{"binder": "B9", "median log2 fold change": 0.0974}
{"binder": "B10", "median log2 fold change": 0.218}
{"binder": "B11", "median log2 fold change": -0.13}
{"binder": "B12", "median log2 fold change": -0.0791}
{"binder": "B13", "median log2 fold change": 0.116}
{"binder": "B14", "median log2 fold change": -0.342}
{"binder": "B15", "median log2 fold change": 0.152}
{"binder": "B16", "median log2 fold change": -0.0723}
{"binder": "B17", "median log2 fold change": 0.0922}
{"binder": "B18", "median log2 fold change": -0.0489}
{"binder": "B19", "median log2 fold change": -0.00582}
{"binder": "B20", "median log2 fold change": 0.283}
{"binder": "B21", "median log2 fold change": -0.0376}
{"binder": "B22", "median log2 fold change": 0.265}
{"binder": "B23", "median log2 fold change": -0.359}
{"binder": "B24", "median log2 fold change": 0.242}
{"binder": "B25", "median log2 fold change": 0.225}
{"binder": "B26", "median log2 fold change": -0.31}
{"binder": "B27", "median log2 fold change": -0.0314}
{"binder": "B28", "median log2 fold change": -0.0636}
{"binder": "B29", "median log2 fold change": 0.111}
